Laboratory results: PubChem BioAssay AID624260 (Broad Institute, 2012)
The campaign covered roughly 44,000 compounds. About 30 (0.07%) were called active. This list was built around the results that the source calls inconclusive (neither active nor inactive); the mix of calls is not that of the screen. No stated cut-off is given here; in the data, active means inhibition above about 54% (passing the limit was not always enough); inconclusive means no clear call, values can overlap the other calls.

Biological target: Histone-lysine N-methyltransferase NSD2 (Homo sapiens) (UniProt O96028)
Sequence of UniProt O96028 (O96028 whole entry, looked up): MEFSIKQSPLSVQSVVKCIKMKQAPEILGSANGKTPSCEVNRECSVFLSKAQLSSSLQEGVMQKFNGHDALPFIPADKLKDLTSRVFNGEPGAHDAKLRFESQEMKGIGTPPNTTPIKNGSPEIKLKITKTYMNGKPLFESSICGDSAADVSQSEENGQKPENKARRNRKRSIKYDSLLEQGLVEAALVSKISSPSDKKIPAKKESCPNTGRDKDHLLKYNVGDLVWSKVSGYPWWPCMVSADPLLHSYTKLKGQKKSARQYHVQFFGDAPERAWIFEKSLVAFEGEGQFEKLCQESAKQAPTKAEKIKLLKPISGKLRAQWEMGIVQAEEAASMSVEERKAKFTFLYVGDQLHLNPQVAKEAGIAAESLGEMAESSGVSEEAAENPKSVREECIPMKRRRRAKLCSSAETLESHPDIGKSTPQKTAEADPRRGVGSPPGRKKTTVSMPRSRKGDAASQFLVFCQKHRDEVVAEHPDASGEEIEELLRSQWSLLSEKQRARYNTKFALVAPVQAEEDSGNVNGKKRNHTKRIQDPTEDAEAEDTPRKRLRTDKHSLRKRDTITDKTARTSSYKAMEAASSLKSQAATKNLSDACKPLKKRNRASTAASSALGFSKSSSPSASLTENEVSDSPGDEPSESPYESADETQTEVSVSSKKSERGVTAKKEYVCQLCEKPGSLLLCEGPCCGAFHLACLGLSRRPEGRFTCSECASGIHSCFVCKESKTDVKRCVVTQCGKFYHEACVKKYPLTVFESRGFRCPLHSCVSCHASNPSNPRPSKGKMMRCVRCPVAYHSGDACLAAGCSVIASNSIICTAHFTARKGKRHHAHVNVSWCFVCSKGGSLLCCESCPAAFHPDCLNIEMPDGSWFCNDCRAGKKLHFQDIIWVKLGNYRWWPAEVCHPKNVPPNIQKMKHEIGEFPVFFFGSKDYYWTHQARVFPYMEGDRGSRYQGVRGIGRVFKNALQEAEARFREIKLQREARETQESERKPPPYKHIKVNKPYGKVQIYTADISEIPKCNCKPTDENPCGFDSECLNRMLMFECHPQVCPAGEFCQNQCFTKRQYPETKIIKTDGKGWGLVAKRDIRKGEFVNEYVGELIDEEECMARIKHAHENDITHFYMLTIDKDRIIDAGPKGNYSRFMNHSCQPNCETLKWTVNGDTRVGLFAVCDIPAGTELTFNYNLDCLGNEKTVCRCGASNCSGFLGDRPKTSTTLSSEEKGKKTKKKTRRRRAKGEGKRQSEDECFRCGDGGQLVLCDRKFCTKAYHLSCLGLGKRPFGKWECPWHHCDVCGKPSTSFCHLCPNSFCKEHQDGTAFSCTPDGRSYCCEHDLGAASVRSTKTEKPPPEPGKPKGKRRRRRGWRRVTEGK
Assay: NSD2 histone methyltransferase activity blockers – biochemical, plate reader, single point, primary screen (AID 624260);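 further: inhibitors reduce the monomethyl H3K36 fluorescence signal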
Details: NSD2-SET H3K36me1 DELFIA fluorescence, at 12.5 µM, stronger effect = higher value

SMILES | inhibition
CCCN(C)C[C@@H]1Oc2ncc(-c3cccc(C#N)c3)cc2C(=O)N([C@@H](C)CO)C[C@@H]1C | inconclusive: 178%
C/C=C/c1ccc2c(c1)O[C@@H](CN(C)Cc1cccnc1)[C@@H](C)CN([C@@H](C)CO)S2(=O)=O | inconclusive: 127%
CC(=O)O[C@@H]1CC[C@@]2(C)C(CC[C@@H](C)[C@]23Cc2c(O)cc4c(c2O3)CNC4=O)C1(C)C (stereo partly specified) | inactive: -11.6%
COc1ccc(COCC23N=C4SCCCN4[C@H](c4ccccc4O2)[C@H]3CO)cc1 | inactive: -2.8%
C[C@H]1CN([C@@H](C)CO)C(=O)CCCn2nncc2CO[C@H]1CN(C)Cc1ccc(C(F)(F)F)cc1 | inactive: -2.01%
C=C1C(=O)O[C@H]2C[C@H](C)[C@@H]3CC(=O)C(C)=C3C[C@H]12 | inactive: -10.1%
CC1CCC23CCC(O[C@@H]4O[C@H](CO)[C@@H](O)[C@H](O)[C@H]4O)C12C(C=O)=CC3(C)C (stereo partly specified) | inactive: 0.937%
COCC(=O)N(C)C[C@@H]1Oc2ncc(-c3ccccc3F)cc2C(=O)N([C@H](C)CO)C[C@@H]1C | inconclusive: 112%
CCC(=O)N(C)C[C@H]1Oc2ncc(C#CC3(O)CCCC3)cc2C(=O)N([C@H](C)CO)C[C@H]1C | inconclusive: 135%
C[C@@H]1CCCCO[C@@H](CN(C)C)[C@@H](C)CN([C@H](C)CO)C(=O)c2cc(NC(=O)c3ccccc3)ccc2O1 | inconclusive: 87.1%
C[C@@H]1CN([C@H](C)CO)S(=O)(=O)c2ccc(C#CC(C)(C)O)cc2O[C@@H]1CN(C)Cc1ccncc1 | inconclusive: 146%
C=C(C)[C@@]12O[C@@H]1[C@@]1(C)C(=CC2=O)CC[C@@H](O)[C@@H]1C | inactive: -0.56%
Cc1noc(C)c1S(=O)(=O)Nc1ccc2c(c1)C(=O)N([C@@H](C)CO)C[C@H](C)[C@H](CN(C)C(=O)Nc1ccccc1)OCCCC[C@H](C)O2 | inconclusive: 124%
C[C@@H]1CN([C@H](C)CO)C(=O)Cc2cc(NC(=O)Cc3ccccc3)ccc2O[C@@H]1CN(C)C(=O)Nc1ccc(C(F)(F)F)cc1 | inconclusive: 157%
CCc1nn(-c2ccccc2)c2nc(-c3ccccc3O)c3cc(OC)c(OC)cc3c12 | inactive: 0.328%
CC(C)NC(=O)N(C)C[C@@H]1OCCCC[C@@H](C)Oc2ccc(NC(=O)CCC(F)(F)F)cc2C(=O)N([C@@H](C)CO)C[C@H]1C | inconclusive: 84.4%
C[C@H]1CN([C@@H](C)CO)C(=O)c2cc(NC(=O)Nc3ccc(F)cc3)ccc2O[C@H]1CN(C)S(=O)(=O)c1cn(C)cn1 | inconclusive: 66.5%
C[C@H]1CN([C@@H](C)CO)C(=O)c2cccc(NC(=O)c3cnccn3)c2O[C@H]1CN(C)CC1CC1 | inconclusive: 51.3%
C[C@@H]1CCCCO[C@H](CN(C)CC2CCCCC2)[C@H](C)CN([C@H](C)CO)C(=O)c2cc(NC(=O)CCC(F)(F)F)ccc2O1 | inconclusive: 86.2%
C[C@H](CO)N1C[C@H](C)[C@@H](CN(C)Cc2ccncc2)Oc2ccc(NC(=O)Nc3ccc4c(c3)OCO4)cc2C1=O | inconclusive: 182%
CC(C)CC#Cc1ccc2c(c1)O[C@H](CN(C)C(=O)c1cccnc1)[C@@H](C)CN([C@H](C)CO)S2(=O)=O | inactive: 0.112%

SMILES | inhibition
C[C@@H]1CCCCO[C@@H](CN(C)C(=O)CCCN(C)C)[C@H](C)CN([C@@H](C)CO)C(=O)c2cc(NC(=O)c3ccncc3)ccc2O1 | inconclusive: 135%
COc1ccc(C#Cc2ccc3c(c2)[C@]2(C(=O)N3)[C@H](C(=O)NC[C@H](O)c3ccccc3)[C@H]3C(=O)O[C@H](c4ccccc4)[C@H](c4ccccc4)N3[C@@H]2c2ccccc2OCCO)cc1 | inactive: -4.89%
COC(=O)CCCCCCC(=O)N/N=C/c1cccnc1 | inactive: -1.61%
C[C@@H]1CN([C@@H](C)CO)C(=O)c2cc(NC(=O)Nc3ccc(F)cc3)ccc2O[C@@H](C)CCCCO[C@H]1CN(C)C | inconclusive: 68.8%
C[C@@H]1CN([C@@H](C)CO)C(=O)c2cc(NC(=O)Nc3ccc4c(c3)OCO4)ccc2O[C@@H](C)CCCCO[C@H]1CN(C)C | inconclusive: 137%
O=CNCCc1c[nH]c2ccccc12 | inactive: 4.07%
CN(C)c1nc(OC(C(F)(F)F)C(F)(F)F)nc(N(c2ccccc2)c2ccccc2)n1 | inactive: -0.69%
O=c1sc(N2CCN(C3CCCCC3)CC2)nc2ccsc12 | inactive: 5.84%
CCCC#Cc1cnc2c(c1)C(=O)N([C@@H](C)CO)C[C@H](C)[C@H](CN(C)C(=O)NCCC)O2 | inconclusive: 133%
C=CC1CN(C(C)=O)CCC1CCC(=O)c1ccnc2ccccc12 (stereo unspecified) | inactive: 3.43%
CC1(C)[C@H]2CC=C(/C=N\NC(=O)CCCCCC(=O)Nc3ccccc3O)[C@@H]1C2 | inactive: -6.36%
COC(=O)C1=COC(OC2OC(CO)C(O)C(O)C2O)C2C1C=CC2(O)CO (stereo unspecified) | active: 60.2%
O=c1c(O[C@@H]2O[C@H](CO)[C@@H](O)[C@H](O)[C@H]2O)c(-c2ccc(O)c(O)c2)oc2cc(O)cc(O)c12 | inactive: 26.6%
CCCCCC[C@H](O)[C@@H]1C[C@@H](O)C2=C(O1)[C@@H](O)CCC2=O | inactive: 9.01%
CCCC#Cc1ccc2c(c1)O[C@@H](CN(C)C(=O)CC1CC1)[C@H](C)CN([C@@H](C)CO)S2(=O)=O | inconclusive: 67.2%
C[C@@H]1CN([C@H](C)CO)S(=O)(=O)c2ccc(-c3ccccc3)cc2O[C@@H]1CN(C)C(=O)c1ccc2c(c1)OCO2 | inconclusive: 98.8%
CCCNC(=O)C[C@H]1C[C@@H]2c3cc(NC(=O)c4ccc5c(c4)OCO5)ccc3O[C@@H]2[C@@H](CO)O1 | inactive: 7.66%
CC/C(=C(/c1ccccc1)c1ccc(OCCN(C)C)cc1)c1ccccc1 | active: 57.9%
COc1cccc(OC)c1C(=O)Nc1cccc(-c2nc3ncccc3o2)c1 | inactive: 4.19%
CC(C)NC(=O)Nc1ccc2c(c1)C(=O)N([C@H](C)CO)C[C@@H](C)[C@H](CN(C)C)OCCCC[C@@H](C)O2 | inconclusive: 116%
